The values that follow come from PubChem BioAssay (NCI).

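In this assay, cells in 96-well plates receive the compound at five concentrations for 48 hours. Endpoints are linearly interpolated between the surrounding concentrations. GI50 is the concentration that inhibits growth by half. Definition used: TGI = concentration required for complete inhibition of growth.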 Peptide text beside a SMILES is read from it. * marks the point of attachment. OSu = O=C1CCC(=O)N1O*; OBn = c1ccc(CO*)cc1; Bn = c1ccc(C*)cc1

This assay has as its system NCI-H322M lung. Description: growth of human tumour cells (NCI), 48 h.
Turning to `CC(=O)C(C(=O)C(C)(C)C)C(=O)C(C)(C)C`, the TGI was greater than 100 µM.

In the case of `COc1cccc2c1C(=O)c1c(O)c3c(c(O)c1C2=O)C[C@@](O)(/C(C)=N\O)C[C@@H]3OC1CC(N)C(O)C(C)O1` (stereo not given in full), the TGI turned out to be 25 µM. On to `CC(C)CC(NC(=O)C(N)CCC(=O)OCc1ccccc1)C(=O)NC(COCc1ccccc1)C(=O)NC(Cc1ccccc1)C(=O)ON1C(=O)CCC1=O` (stereo not given) (H-E(OBn)LS(Bn)F-OSu; configuration not given here), for which the TGI was greater than 100 µM. Still for that read-out and setting: as for `CN1N(c2ccccc2)C(=O)C2=NC=C(C#N)C(=N)C21C` (stereo not given), the figure is greater than 100 µM; as for `O=c1cc2cc(O)[nH]c(=O)c2c(O)[nH]1`, greater than 100 µM.

In turn, `CC(C)=CCC/C(C)=C/CC/C(C)=C/CSc1ccc(Cl)cc1C(=O)O` came in with a TGI of 33.6 µM.

As for `O=C(NC(CO)CO)c1ccc2cc(C(=O)N3CC(CCl)c4ccc([N+](=O)[O-])cc43)[nH]c2c1` (stereo not given), the TGI was greater than 100 µM.

As to `O=C1OC(C(O)C(O)C(O)CO)C(O)C1O` (stereo not given), the TGI was greater than 100 µM. The compound `COc1cc(C2c3cc4c(cc3OC(N3CCOCC3)C2C)OCO4)cc(OC)c1OC(C)=O` (stereo not given) returned a TGI greater than 100 µM. On to `COc1cc([C@@H]2c3cc4c(cc3[C@@H](Nc3ccc(NC(=O)c5cc(NC(=O)c6cc([N+](=O)[O-])cn6C)cn5C)cc3)[C@H]3COC(=O)[C@H]23)OCO4)cc(OC)c1O`, for which the TGI is greater than 61.5 µM. `COc1cc(C)cc(OC)c1/C=C/C(=O)O` showed a TGI greater than 100 µM.

Regarding `CCN1CCCCC(=N\O)/C(=N/O)CCCC1`, the TGI was greater than 100 µM. `CS(=O)(=O)CS(=O)CS(=O)CS(=O)CC(NC(=O)CCC(N)C(=O)O)C(=O)O` (stereo not given) returned a TGI greater than 100 µM.

`C=C(COC(=O)C(C)C)[C@H]1Oc2ccc(C(C)=O)cc2[C@@H]1OC(=O)C(C)C`: the TGI is greater than 100 µM. Regarding `O=C(/C=C/c1ccc(Cl)cc1)c1ccncc1`, the TGI was greater than 100 µM. Compound `COC1=CCC2=C(CCN(C(=O)C3CCC3)C2Cc2ccc(OC)c(O)c2)C1` (stereo not given) gave a TGI greater than 100 µM. Compound `O=C1CCC2CCOc3ccc(O)c1c32` (stereo not given) yielded a TGI greater than 100 µM. The same measure, in the same setting: as for `Cn1cnc([N+](=O)[O-])c1Sc1nnc(C(F)(F)F)n1C`, the figure is greater than 100 µM; as for `CCOC(=O)C12C(=O)CCN1CCc1ccccc1C2C` (stereo not given), greater than 100 µM. Regarding `CN1CCN(c2cc(Nc3cc(C4CC4)[nH]n3)nc(Nc3ccc(CC(=O)NCc4cccc(F)c4)cc3)n2)CC1`, the GI50 was 1.58 µM and the TGI turned out to be 14.4 µM.

In turn, `COc1cc(C2C3=C(N=C4SC(C(C)=O)=C(C)N42)c2ccccc2CC3)cc(OC)c1OC` (stereo not given) showed a TGI greater than 100 µM.

For `CC(C)c1ccc(O)c(=O)cc1`, the GI50 is 7.86 µM and the TGI was greater than 100 µM. As for `CCCCc1nc2cc(/C=C/C(=O)NO)ccc2n1CCN(CC)CC`, the GI50 was 0.281 µM and the TGI is 3.35 µM. The corresponding values for `COc1ccc(-c2c(C#N)c(N)nc3c2CCCc2ccc(F)cc2-3)cc1OC` are 0.0535 µM and 62.5 µM. On to `COc1ccc2c(c1)C(=O)c1c-2n(CCCCl)c(=O)c2cc(N(C)C)ccc12`, for which the GI50 was greater than 100 µM and the TGI was greater than 100 µM.

With `CCOC(=O)O/N=C1/C(c2c(O)[nH]c3ccccc23)=Nc2ccccc21`, the TGI amounted to 21.9 µM. Take `C=CCNC(=S)OCCCCCCCCCC`: the TGI is 81.4 µM. Regarding `CCCCNCC(O)c1cc(-c2ccc(C(F)(F)F)cc2)nc(-c2ccc(C(F)(F)F)cc2)c1` (stereo not given), the GI50 is 1.71 µM and the TGI was 3.38 µM. As to `Cc1ccc(CC(=O)Nc2ccc(NC(=O)CNC(=O)/C=C/c3ccc(-c4ccccc4)cc3)cc2C(=O)c2ccccc2)cc1`, the TGI was 24.6 µM. In the case of `C=C1[C@H](OCC(C)C)[C@@H](OC(=O)C(C)CC)[C@@H](O)C(C)(C)/C=C/[C@H](C)C(=O)[C@@]2(O)C[C@H](C)[C@H](O)[C@@H]2[C@H]1OC(=O)C(C)CC` (stereo not given in full), the TGI was greater than 20 µM. The same measure, in the same setting: as for `Cn1c(=O)c2[nH]c(-n3nc(-c4ccccc4)cc3N)nc2n(C)c1=O`, the figure is 38.2 µM; as for `COc1ccc(Nc2c[nH]c(=O)[nH]c2=O)cc1`, greater than 100 µM.

Turning to `CN(C)CCCC(=O)Nc1ccc(Cn2nnc3c2C(=O)c2nnn(Cc4ccc(NC(=O)CCCN(C)C)cc4)c2C3=O)cc1`, the GI50 was 5.07 µM and the TGI turned out to be 17.1 µM. `CC1=C(c2cc(C(=O)Nc3cccc(C(F)(F)F)c3)nc(NC#N)n2)Sc2ccccc2N1`: the TGI was greater than 100 µM. The same measure, in the same setting: with `COC1(OC)c2ccccc2C2(O)c3ccccc3C(=O)C12` (stereo not given) the figure was greater than 100 µM.

In the case of `COC(=O)c1cc2c(cc1Cl)SC(N(N(C)C)S(=O)(=O)c1ccc(Cl)cc1)=NS2(=O)=O`, the GI50 was 20.6 µM and the TGI came out at 59.5 µM. Consider `COc1ccc(N2C(=O)C3c4[nH]c5ccccc5c4C4CCC(C(C)(C)C)CC4C3C2=O)cc1OC` (stereo not given), for which the TGI amounted to 89.5 µM. As for `CC(C)(C)c1nnc2n(c1=O)N=CC(c1ccc(Br)cc1)S2` (stereo not given), the GI50 is 47.5 µM and the TGI was greater than 100 µM. For the compound `CC(C)(C)OC(=O)NCCNC(=O)CN(CC(=O)O)C1CCCCC1N(CC(=O)O)CC(=O)O` (stereo not given), the TGI was greater than 100 µM. For `COC1CCC(n2c([C@@H]3CCCC(=O)N3c3ccc(F)c(F)c3)nc3cc(-c4c(C)noc4C)ccc32)CC1` (stereo not given in full), the GI50 is 11.4 µM and the TGI stood at 43.7 µM. On the same counts, the results for `C=C(C(=O)OC)[C@@H]1C[C@@H](O)[C@]2(C)CC/C=C(\C)CCC[C@H](C)[C@H](O)C1O2` are 42.4 µM and greater than 100 µM. Compound `CCc1nc(N)nc(N)c1-c1ccc(Cl)c(N=NN(C)C)c1` displayed a TGI greater than 100 µM. On the same count and under the same terms, as for `CCCN(CCC)c1c([N+](=O)[O-])cc(C(=O)N(C)C)cc1[N+](=O)[O-]`, the figure is greater than 100 µM.

With `Cc1ccc(-n2c(-c3ccc(Cl)cc3)cs/c2=N\NC(=O)COc2n[nH]c(=O)c3ccccc23)cc1`, the GI50 is 56.5 µM and the TGI was greater than 100 µM. For the compound `COc1cccc2c(Nc3ccc(C(=O)NCCN(C)C)cc3)cc(-c3ccccc3)nc12`, the GI50 was 20.8 µM and the TGI turned out to be 48.5 µM. `CCOC(=O)C1=CN(C(=O)c2ccccc2)CCC1Cc1ccccc1` (stereo not given) displayed a TGI greater than 100 µM. In turn, `Cc1nn(C)c(=O)c2nn(-c3ccccc3)c(C)c12` had a TGI greater than 100 µM. Regarding `O=C(Nc1ccccc1F)c1ccc(NC2=C(Cl)C(=O)N(Cc3ccccc3)C2=O)cc1`, the GI50 is 15.9 µM and the TGI is 29.3 µM. For `Cc1nc(N)nc(N)c1N1CCN(Cc2ccccc2)CC1`, the TGI is greater than 100 µM.

`Cc1ccc(C2(c3ccc(C)c(O)c3C)CCN(C)CC2)c(C)c1O`: the TGI is greater than 100 µM. Same read-out and setting: with `CCOC(=O)CN(Cc1ccccc1)Cc1c(C(=O)c2ccccc2)c2ccccc2n1C(=O)c1ccccc1` the figure was greater than 100 µM; with `OC(C(=Nc1ccccc1)c1ccccc1)c1ccccc1` (stereo not given), 50.1 µM.

On to `Cc1ccccc1NC(=O)c1sc2nc3c(cc2c1N)C(=O)CCC3`, for which the GI50 is 5.12 µM and the TGI was greater than 100 µM.

Compound `O=[N+]([O-])c1cc(Cl)ccc1S(=O)(=O)c1cc(Cl)cc2c1NCCC2` returned a TGI greater than 100 µM.

For `CCOC(=O)c1cnc2c(cnn2CC)c1NN=C(C)C`, the GI50 was 57.9 µM and the TGI was greater than 100 µM.

Take `CC(C)C[C@H](NC(=O)[C@H](CCc1ccccc1)NC(=O)c1ccc2ccccc2n1)B(O)O`: the TGI is 12.5 µM. `O=[N+]([O-])c1ccc2c(c1)S(=O)c1ccccc1-2` (stereo not given) had a TGI greater than 100 µM. The compound `O=C(Nc1cccc(C(F)(F)F)c1)c1cc(-c2ccccc2)nc(=S)[nH]1` displayed a TGI greater than 100 µM.

`OCCNc1nc2c(N3CCCC3)nc(N3CCNCC3)nc2nc1NCc1ccccc1` yielded a TGI of 25.4 µM. With `CC12CCC(O)CC1CCC1C2CCC2(C)C(C3=CC(=O)OC3)CCC12` (stereo not given), the GI50 was 1.99 µM and the TGI was 13.4 µM. `O=c1c(S(=O)(=O)Oc2ccccc2)coc2cc(F)ccc12` showed a TGI greater than 100 µM. On to `C=C1C(=O)O[C@H]2[C@H]1CC(=O)/C(C)=C\CC[C@@]1(C)O[C@@H]21`, for which the GI50 was 7.65 µg/mL and the TGI worked out at 14.9 µg/mL.

`Cc1ccsc1/C=N/Nc1ccccn1`: the TGI is greater than 100 µM.

In the case of `C1C[OH+]CC[OH+]CC[OH+]CC[OH+]CC[OH+]CC[OH+]1.[Cl-].[Ta+5]`, the GI50 is greater than 100 µM and the TGI is greater than 100 µM.

For `CCOC(=O)C1(C(=O)OCC)CC=C(C)CC12C(=O)Nc1ccccc12` (stereo not given), the TGI was greater than 100 µM.

Take `CC(C)C(/C=C/c1ccccc1)=N\NC(=S)NN`: the TGI was greater than 100 µM.

Compound `CC(C)(C)c1cc(C2NC(=O)NC2=O)cc(C(C)(C)C)c1O` (stereo not given) returned a TGI greater than 100 µM.

`Cc1ccc(Nc2nc(NS(=O)(=O)c3cc(C)c(Cl)cc3S)n[nH]2)cc1` gave a TGI greater than 100 µM. The same measure, in the same setting: with `Cc1nc2ccc(NCCN(C)C)c3c(=O)c4cc(O)ccc4n1c23` the figure was 6.72 µM; with `CN(C)CCNC(=O)c1cccc2c1nc(-c1ccccn1)c1ccccc12`, 40.1 µM; with `CCCCCCCCCC(=O)N[C@H]1CCc2cc(OC)c(OC)c(OC)c2-c2ccc(SC)c(=O)cc21`, greater than 100 µM.

The compound `O=c1c2cccnc2ncn1CCCN1CCOCC1` yielded a TGI greater than 100 µM. The same measure, in the same setting: with `O=C(CC(=O)c1ccccc1NC1=Cc2ccccc2C(=O)C1=O)C(=O)NC1=C(Cl)C(=O)c2ccccc2C1=O` the figure was 22.5 µM. As to `O=C1C(=O)c2c(nc3ncccn23)-c2ccccc21`, the GI50 was 0.18 µM and the TGI came out at 0.36 µM. Turning to `COc1ccc(Cn2cc(Cn3c(=O)c(-c4nc5ccccc5[nH]4)cc4ccccc43)nn2)c(OC)c1OC`, the GI50 was 0.404 µM and the TGI was greater than 100 µM. Compound `CCOC(=O)CCC(NC(=O)c1ccc(NCc2ccc3nc(-c4ccccc4)c(Cl)nc3c2)c2ccccc12)C(=O)OCC` (stereo not given) returned a TGI greater than 100 µM. For the compound `Nc1c(O)c(S(=O)(=O)O)c(O)c2c1C(=O)c1ccccc1C2=O`, the GI50 is 3.44 µM and the TGI worked out at 68.3 µM. On to `Nc1nc(Nc2ccc3c(c2)CCC(N2CCCC2)CC3)nn1-c1cc2c(nn1)-c1ccccc1CCC2` (stereo not given), for which the GI50 was 0.603 µM and the TGI turned out to be 2 µM.

On to `COc1c(Cl)c(Cl)c(OC)c2c1C(=O)C=CC2=O`, for which the TGI was greater than 100 µM.

On to `COC(=O)[C@]12CC[C@@H](C)[C@H](C)[C@@H]1C1=CC[C@@H]3[C@@]4(C)C=C(O)C(=O)C(C)=C4CC[C@@]3(C)[C@]1(C)CC2`, for which the GI50 was 18.1 µM and the TGI is 34.2 µM.

Regarding `O=C(O)C(CO)NC(=O)C1C(C(=O)O)C(c2ccccc2[N+](=O)[O-])C=C(c2ccco2)N1c1ccncc1` (stereo not given), the TGI amounted to 23.5 µM.
